# Experimental data as given in US20220267463A1, “ANTIBODIES WHICH BIND TO CANCER CELLS AND TARGET RADIONUCLIDES TO SAID CELLS” (Hoffmann-La Roche Inc., priority 2019, published 2022).
# Tested on: Pb-DOTA labeled with FITC
# Test: FACS staining using DOTA-FITC on MKN-45 cells
# Format: cell-based
# Conditions: 10 μg/mL antibody, FIG. 24
# Description: These examples investigate recruitment of Pb-DOTA to cells by split antibodies as described herein. P1AF0712 has a first heavy chain of SEQ ID NO:97, a second heavy chain of SEQ ID NO: 98 and a light chain of SEQ ID NO: 103. P1AF0713 has a first heavy chain of SEQ ID NO: 100, a second heavy chain of SEQ ID NO: 101 and a light chain of SEQ ID NO: 103. MKN-45 cells were detached from the culture bottle using Trypsin and were counted using a Casy cell counter. After pelleting at 4° C., 300 g the cells were resuspended in FACS Buffer (2.5% FCS in PBS), adjusted to 2.0E+06 cells/mL dispensed to 96-well PP V-bottom-Platte (25 μL/well=5.0E+04 Zellen/well).
# The CEA specific SPLIT antibodies (P1AF0712 or P1AF0713 respectively) were adjusted to 40 μg/mL in FACS buffer, resulting in a final concentration of 10 μg/mL. Both antibodies were added to the cells either combined or separated and followed by buffer and incubated at 4° C. for 1 h. Subsequently, Pb-DOTA labeled with FITC was added to the cells in equimolar ratio to the antibodies and incubated for 1 h at 4° C. The cells were then washed twice in FACS buffer and resuspended in 70 μl/well FACS buffer for measurement using a FACS Canto (BD, Pharmingen). […]
# EC50 was determined for the SPLIT antibodies using either secondary antibody based detection (488, top panel) or Pb-DOTA-FITC (DOTA-FITC, bottom panel)
row,Molecule,fluorescence signal / recruitment of Pb-DOTA-FITC to cells
1,"P1AF0712: CEA specific SPLIT antibody, DOTA binder half; SEQ ID NO 97, 98, 103 (protein, P1AF0712 HCknob <CEA> CH1A1A (D1AC4023); P1AF0712 HChole <CEA> CH1A1A DOTA-VL (D1AE4684); P1AF0712 and P1AF0713 light chain (D1AA3384)) chain 1: QVQLVQSGAEVKKPGASVKVSCKASGYTFTEFGMNWVRQAPGQGLEWMGWINTKTGEATYVEEFKGRVTFTTDTSTSTAYMELRSLRSDDTAVYYCARWDFAYYVEAMDYWGQGTTVTVSSASTKGPSVFPLAPSSKSTSGGTAALGCLVKDYFPEPVTVSWNSGALTSGVHTFPAVLQSSGLYSLSSVVTVPSSSLGTQTYICNVNHKPSNTKVDKKV[… human IgG1 Fc with changes …] chain 2: QVQLVQSGAEVKKPGASVKVSCKASGYTFTEFGMNWVRQAPGQGLEWMGWINTKTGEATYVEEFKGRVTFTTDTSTSTAYMELRSLRSDDTAVYYCARWDFAYYVEAMDYWGQGTTVTVSSASTKGPSVFPLAPSSKSTSGGTAALGCLVKDYFPEPVTVSWNSGALTSGVHTFPAVLQSSGLYSLSSVVTVPSSSLGTQTYICNVNHKPSNTKVDKKVEPKSCDKTHTCPPCPAPEAAGGPSVFLFPPKPKDTLMISRTPEVTCVVVDVSHEDPEVKFNWYVDGVEVHNAKTKPREEQYNSTYRVVSVLTVLHQDWLNGKEYKCKVSNKALGAPIEKTISKAKGQPREPQVCTLPPSRDELTKNQVSLSCAVKGFYPSDIAVEWESNGQPENNYKTTPPVLDSDGSFFLVSKLTVDKSRWQQGNVFSCSVMHEALHNHYTQKSLSLSPGGGGGSGGGGSGGGGSGGGGSQAVVIQESALTTPPGETVTLTCGSSTGAVTASNYANWVQEKPDHLFTGLIGGHNNRPPGVPARFSGSLIGDKAALTIAGTQTEDEAIYFCALWYSDHWVIGGGTKLTVL chain 3: DIQMTQSPSSLSASVGDRVTITCKASAAVGTYVAWYQQKPGKAPKLLIYSASYRKRGVPSRFSGSGSGTDFTLTISSLQPEDFATYYCHQYYTYPLFTFGQGTKLEIKRTVAAPSVFIFPPSDEQLKSGTASVVCLLNNFYPREAKVQWKVDNALQSGNSQESVTEQDSKDSTYSLSSTLTLSKADYEKHKVYACEVTHQGLSSPVTKSFNRGEC",lack of Pb-DOTA binding capability
2,"P1AF0713: CEA specific SPLIT antibody, DOTA binder half; SEQ ID NO 100, 101, 103 (protein, P1AF0713 HCHole <CEA> CH1A1A (D1AC4022); P1AF0713 HCknob <CEA> CH1A1A DOTA-VH-AST (D1AE3670); P1AF0712 and P1AF0713 light chain (D1AA3384)) chain 1: QVQLVQSGAEVKKPGASVKVSCKASGYTFTEFGMNWVRQAPGQGLEWMGWINTKTGEATYVEEFKGRVTFTTDTSTSTAYMELRSLRSDDTAVYYCARWDFAYYVEAMDYWGQGTTVTVSSASTKGPSVFPLAPSSKSTSGGTAALGCLVKDYFPEPVTVSWNSGALTSGVHTFPAVLQSSGLYSLSSVVTVPSSSLGTQTYICNVNHKPSNTKVDKKVEPKSCDKTHTCPPCPAPEAAGGPSVFLFPPKPKDTLMISRTPEVTCVVVDVSHEDPEVKFNWYVDGVEVHNAKTKPREEQYNSTYRVVSVLTVLHQDWLNGKEYKCKVSNKALGAPIEKTISKAKGQPREPQVCTLPPSRDELTKNQVSLSCAVKGFYPSDIAVEWESNGQPENNYKTTPPVLDSDGSFFLVSKLTVDKSRWQQGNVFSCSVMHEALHNHYTQKSLSLSPG chain 2: QVQLVQSGAEVKKPGASVKVSCKASGYTFTEFGMNWVRQAPGQGLEWMGWINTKTGEATYVEEFKGRVTFTTDTSTSTAYMELRSLRSDDTAVYYCARWDFAYYVEAMDYWGQGTTVTVSSASTKGPSVFPLAPSSKSTSGGTAALGCLVKDYFPEPVTVSWNSGALTSGVHTFPAVLQSSGLYSLSSVVTVPSSSLGTQTYICNVNHKPSNTKVDKKV[… human IgG1 Fc with changes …]GGGGSGGGGSGGGGSGGGGSHVKLQESGPGLVQPSQSLSLTCTVSGFSLTDYGVHWVRQSPGKGLEWLGVIWSGGGTAYNTALISRLNIYRDNSKNQVFLEMNSLQAEDTAMYYCARRGSYPYNYFDAWGQGTTVTVSSAST chain 3: DIQMTQSPSSLSASVGDRVTITCKASAAVGTYVAWYQQKPGKAPKLLIYSASYRKRGVPSRFSGSGSGTDFTLTISSLQPEDFATYYCHQYYTYPLFTFGQGTKLEIKRTVAAPSVFIFPPSDEQLKSGTASVVCLLNNFYPREAKVQWKVDNALQSGNSQESVTEQDSKDSTYSLSSTLTLSKADYEKHKVYACEVTHQGLSSPVTKSFNRGEC",lack of Pb-DOTA binding capability
